Results on 43 compounds are retold here after paper PMC4336329 (PLoS ONE, 2015).

The structures appear in SMILES notation. Out of some 310,000 compounds screened, about 2,200 (0.71%) showed an effect of 50% or more. The effect is printed as a negative number. Some of the results follow.

This experiment deals with human ether-à-go-go-related gene (hERG) potassium channel (human, UniProt Q12809). The experiment is described as follows: primary screen, population patch clamp on CHO cells stably expressing hERG.
human ether-à-go-go-related gene (hERG) potassium channel, sequence (Q12809 whole entry, looked up): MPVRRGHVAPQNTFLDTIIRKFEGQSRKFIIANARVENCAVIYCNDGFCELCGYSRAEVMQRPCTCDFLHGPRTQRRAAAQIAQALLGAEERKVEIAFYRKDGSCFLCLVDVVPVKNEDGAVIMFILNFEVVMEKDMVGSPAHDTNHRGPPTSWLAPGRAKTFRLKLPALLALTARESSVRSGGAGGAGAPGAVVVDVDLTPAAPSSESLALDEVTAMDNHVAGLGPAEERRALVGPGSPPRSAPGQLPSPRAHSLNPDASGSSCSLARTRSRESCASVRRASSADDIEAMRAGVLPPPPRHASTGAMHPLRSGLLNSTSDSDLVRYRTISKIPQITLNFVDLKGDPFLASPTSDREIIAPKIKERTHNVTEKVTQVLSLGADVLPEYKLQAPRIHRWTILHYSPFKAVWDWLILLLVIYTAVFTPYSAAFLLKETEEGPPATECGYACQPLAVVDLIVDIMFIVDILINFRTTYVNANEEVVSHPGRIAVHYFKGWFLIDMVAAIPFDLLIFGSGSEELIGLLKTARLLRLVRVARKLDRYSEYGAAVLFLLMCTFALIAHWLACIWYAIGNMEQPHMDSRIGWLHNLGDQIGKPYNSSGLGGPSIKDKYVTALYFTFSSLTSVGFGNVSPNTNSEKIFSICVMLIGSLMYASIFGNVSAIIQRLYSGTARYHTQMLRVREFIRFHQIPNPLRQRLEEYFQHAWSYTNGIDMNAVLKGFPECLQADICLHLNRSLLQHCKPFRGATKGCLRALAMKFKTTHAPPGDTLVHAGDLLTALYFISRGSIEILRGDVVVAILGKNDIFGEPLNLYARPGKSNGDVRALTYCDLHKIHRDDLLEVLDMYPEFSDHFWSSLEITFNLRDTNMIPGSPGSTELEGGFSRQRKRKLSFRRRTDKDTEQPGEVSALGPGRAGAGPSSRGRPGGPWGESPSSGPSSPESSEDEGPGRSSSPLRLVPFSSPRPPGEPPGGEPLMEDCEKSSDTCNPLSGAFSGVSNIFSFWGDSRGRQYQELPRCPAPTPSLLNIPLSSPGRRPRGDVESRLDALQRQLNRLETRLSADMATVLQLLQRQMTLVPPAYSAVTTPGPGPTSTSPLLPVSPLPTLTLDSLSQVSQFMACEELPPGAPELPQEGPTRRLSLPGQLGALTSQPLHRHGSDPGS
Take `O=C(COc1cccnc1[N+](=O)[O-])NCc1ccc(F)cc1`: the “hERG current change (%, negative = inhibition) at 1uM” value is on record as 5.18%.
`COc1ccc(S(=O)(=O)N2CCC3(CC2)OCCN3S(=O)(=O)c2ccc(C)cc2)cc1OC`: the “hERG current change (%, negative = inhibition) at 1uM” value is given as -7.55%.
Under `O=C(CN1C(=O)COc2ccc(S(=O)(=O)N3CCCC3)cc21)NC1CC1` stands 12.5%.
Turning to `COc1ccc(NC(=O)c2ccc(Cl)cc2)c[n+]1[O-]`, the “hERG current change (%, negative = inhibition) at 1uM” value amounted to 5.24%.
The figure for `O=C(N/N=C/C=C\c1ccc([N+](=O)[O-])cc1)c1cccnc1` is 9.28%.
The figure for `NS(=O)(=O)c1ccc(Nc2ccc3cc(S(=O)(=O)N4CCCCC4)ccc3n2)cc1` is 9.47%; for `COc1ccc(C(=O)CC(=O)c2ccccc2O)cc1OC` it is 4.69%.
The figure for `CCc1cc(C(=O)N2CCCC(C(=O)c3ccc(Oc4ccccc4)cc3)C2)n(C)n1` (stereo not shown) is 7.18%; for `CC/C(=N\NC(=O)c1c(C)nc2ccccn12)c1ccc(Cl)cc1` it is -7.38%.
As for `Nc1c(N(Cc2ccco2)C(=O)c2ccc(Br)cc2)c(=O)[nH]c(=O)n1Cc1ccccc1`, the “hERG current change (%, negative = inhibition) at 1uM” value came to 10.5%.
For the compound `O=c1[nH]c2ccccc2n1CCC1CCCCC1`, the “hERG current change (%, negative = inhibition) at 1uM” value is recorded as 5.31%.
Regarding `CCN1C(=O)C(CC(=O)Nc2ccc(OC)cc2)N(Cc2ccco2)C1=S` (stereo not shown), the “hERG current change (%, negative = inhibition) at 1uM” value was found to be 0.703%.
Under `Cn1c(SCC2CCCCC2)nnc1-c1ccncc1` stands 4.33%.
Under `O=C1CCC(=O)N1CCC(c1ccc(F)cc1)c1ccco1` (stereo not shown) stands 6.73%.
For `O=C1N/C(=N\c2ccccn2)SC1Cc1ccccc1Cl` (stereo not shown), the “hERG current change (%, negative = inhibition) at 1uM” value turned out to be 13.5%.
The figure for `CN1C(=O)/C(=C/c2ccc(O)c([N+](=O)[O-])c2)N(C)C1=S` is -10.1%.
In the case of `Cc1ccc(S(=O)(=O)N(C)C)cc1NC(=S)NNC(=O)C(N)=O`, the “hERG current change (%, negative = inhibition) at 1uM” value was 16.4%.
Under `CCOC(=O)N1CCN(C(=O)c2cc3c(=O)n4ccccc4nc3s2)CC1` stands 7.85%; under `O=C(NCCc1cccc(F)c1)[C@@H]1CSC2c3ccccc3C(=O)N21` (stereo partly shown), 0.16%; under `Cc1[nH]n(-c2cccc(Cl)c2)c(=O)c1-c1ccc(Cl)cc1`, 10.8%.
The figure for `CCOc1cccc2sc(=NC(=O)CCS(=O)(=O)c3ccccc3)n(CC)c12` is 10.6%; for `CC(C)C[C@H](NC(=O)CCCn1nnc2ccccc2c1=O)C(=O)O` it is 10.7%; for `c1ccc(NC2=NCCN2CC2CCCCC2)cc1` it is 12%.
Under `CCN(CC(=O)NC1CCCCC1)S(=O)(=O)c1ccc(Cl)cc1` stands 2.23%.
`Cc1ccccc1C(=O)OCCN1CCOCC1.Cl`: the “hERG current change (%, negative = inhibition) at 1uM” value amounted to 11.6%.
The figure for `CCCCCCCC(=O)NNC(=O)c1c(O)c2ccccc2n(CCC)c1=O` is 10.6%.
The figure for `CCCc1cc(=O)oc2cc(C)cc(OC(C)C(=O)NCC(O)c3ccccc3)c12` (stereo not shown) is 6.92%.
Under `CN(C)S(=O)(=O)c1ccc(C(=O)OCC2CC2(Cl)Cl)cc1` (stereo not shown) stands 13.1%; under `Cc1cc(-c2ccc(C)c(S(=O)(=O)N3CCN(c4ccc([N+](=O)[O-])cc4)CC3)c2)on1`, 1.89%.
With `COc1cccc(C(=O)NCC(c2ccco2)N2CCOCC2)c1` (stereo not shown), the “hERG current change (%, negative = inhibition) at 1uM” value was 5.26%.
Under `CN(C)/C=N/c1nc2ccc3c(c2s1)CCCC3` stands 12.3%; under `Cl.c1ccc(-c2nc(NCc3ccco3)c3ccccc3n2)cc1`, 4.37%; under `COc1ccc(OCC(=O)N2CCC(Cc3ccccc3)CC2)cc1`, 9.32%.
For the compound `COc1ccc(-n2nnc3c(=O)n(C/C=C/c4ccccc4)cnc32)cc1`, the “hERG current change (%, negative = inhibition) at 1uM” value is reported as -6.41%.
Under `N=c1c2c(-c3ccccc3)c(-c3ccccc3)n(Cc3ccco3)c2ncn1CCCn1ccnc1` stands -63.6%; under `O=C(CN1CCN(c2ccccn2)CC1)Nc1cccc(Br)c1`, 2.24%; under `Clc1cc(Cl)c(OCCCCn2cncn2)c(Cl)c1`, -7.27%.
The figure for `O=C(CNC(=S)N(CCCN1CCOCC1)Cc1cccs1)N1CCCC1` is 7.33%; for `COc1ccc(OC)c(S(=O)(=O)N(C)CC(=O)N2CCN(c3ccccc3F)CC2)c1` it is 4.96%; for `CC(C)CCOP(=O)(c1ccc(N(C)C)cc1)C(Nc1ccccc1)c1ccc(N(C)C)cc1` (stereo not shown) it is 6.84%.
The figure for `COc1ccc(-c2c(-c3ccsc3)oc3ccc(N4CCOCC4)cc23)cn1` is 16.3%; for `CCOc1ccc2c(c1)/C(=N/N1C(=O)c3ccccc3C1=O)C(=O)N2` it is 18%; for `O=C1C(=O)N(Cc2ccccc2)C(=O)N1CCN1C(=O)c2ccccc2C1=O` it is 8.16%.
